Reference: patent publication US20200347144A1 (SHANGHAI HYAMAB BIOTECH, published 2020)

Molecular target: T1, his-muCD8a-4-1BBL^ECD fusion protein (mouse, UniProt P01731 28-194; P41273 partial chain)
T1 construct: also called 4-1BB ligand protein; not shown: his-tag on the N side
Assay: ELISA: 4-1BB-hFc coated at 0.5 µg/mL, his-muCD8a-4-1BBL titrated, detection by biotin anti-mouse CD8a and streptavidin-HRP, OD450

binding result: binds
B1: hFc-tagged human 4-1BB extracellular domain protein (4-1BB-hFc) (Fc fusion)
chain: not shown
notes: also called immunogen A; 4-1BB^ECD-hFc; not shown: human IgG Fc fragment (hFc) of the pCpC vector
